Assay results from paper PMC4336329 (PLoS ONE, 2015).
The whole screen tested about 310,000 compounds, of which about 14,000 (4.5%) showed an effect of 50% or more. The effect is printed as a negative number. Some of the results follow.

Molecular target: human ether-à-go-go-related gene (hERG) potassium channel (human, UniProt Q12809)
Experiment: primary screen, population patch clamp on CHO cells stably expressing hERG
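Note: peak tail current of the secondary pulse compared with the same well before compound.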

Sequence of human ether-à-go-go-related gene (hERG) potassium channel (Q12809 whole entry, looked up): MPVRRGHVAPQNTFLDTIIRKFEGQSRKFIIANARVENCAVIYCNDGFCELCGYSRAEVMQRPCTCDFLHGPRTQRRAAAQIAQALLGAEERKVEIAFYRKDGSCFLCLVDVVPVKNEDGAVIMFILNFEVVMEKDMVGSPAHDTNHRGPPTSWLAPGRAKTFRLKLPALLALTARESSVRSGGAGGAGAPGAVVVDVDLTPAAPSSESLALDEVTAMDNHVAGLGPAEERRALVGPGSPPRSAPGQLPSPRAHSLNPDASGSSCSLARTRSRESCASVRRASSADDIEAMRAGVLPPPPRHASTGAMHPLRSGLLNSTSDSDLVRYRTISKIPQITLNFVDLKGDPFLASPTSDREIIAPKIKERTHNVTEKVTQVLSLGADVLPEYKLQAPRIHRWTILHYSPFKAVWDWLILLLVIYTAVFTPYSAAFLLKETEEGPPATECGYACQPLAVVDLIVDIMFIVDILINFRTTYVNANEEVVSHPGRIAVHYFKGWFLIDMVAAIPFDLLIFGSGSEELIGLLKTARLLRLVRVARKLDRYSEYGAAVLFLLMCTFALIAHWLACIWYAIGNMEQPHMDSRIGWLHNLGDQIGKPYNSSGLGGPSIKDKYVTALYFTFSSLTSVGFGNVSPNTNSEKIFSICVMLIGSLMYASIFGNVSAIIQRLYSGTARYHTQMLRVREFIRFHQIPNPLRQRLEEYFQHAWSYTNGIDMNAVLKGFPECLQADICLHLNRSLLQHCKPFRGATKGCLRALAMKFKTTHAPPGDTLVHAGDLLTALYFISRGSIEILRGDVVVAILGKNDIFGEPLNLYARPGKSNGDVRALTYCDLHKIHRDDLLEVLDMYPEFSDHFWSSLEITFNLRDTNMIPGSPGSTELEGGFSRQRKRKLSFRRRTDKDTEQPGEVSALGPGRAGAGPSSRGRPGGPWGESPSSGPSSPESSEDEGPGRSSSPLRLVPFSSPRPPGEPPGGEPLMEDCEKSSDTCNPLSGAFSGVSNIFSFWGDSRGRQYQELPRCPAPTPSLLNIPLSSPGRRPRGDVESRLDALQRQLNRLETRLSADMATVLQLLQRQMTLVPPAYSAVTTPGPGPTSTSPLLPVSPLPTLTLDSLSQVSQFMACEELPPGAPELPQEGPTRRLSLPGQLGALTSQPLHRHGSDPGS

SMILES	hERG current change (%, negative = inhibition) at 10uM [%]
Cc1onc(-c2ccccc2)c1C(=O)OCC(=O)Nc1ccc2c(c1)OCO2	11.7
COc1ccc(C(C)=O)cc1COC(=O)CNC(=O)c1cc(C)cc(C)c1	-11.7
Cc1nnc(SCC(=O)N(C)Cc2ccccc2)[nH]c1=O	6.86
CCn1c(C)c(C)c2cc(C(=O)NCCCN3CCCCC3C)ccc21 (stereo not shown)	-36.7
COc1ccc(N(C)S(=O)(=O)c2cccc(C(=O)NC3CCCCC3C)c2)cc1 (stereo not shown)	-6.33
COc1ccc(C2N(Cc3ccccc3)CC(=O)N2/N=C(\C)c2ccccc2)cc1 (stereo not shown)	5.62
O=C(Nc1nnc(C2CC2)s1)C1=NN(C2CCS(=O)(=O)C2)C(=O)CC1 (stereo not shown)	0.219
C/C=C/c1cc(CN2CCN(c3ccc(OC)cc3)CC2)c(O)c(OC)c1	-68.7
COc1ccc(C2C(C#N)=C(N)Oc3cc(N)ccc32)cc1 (stereo not shown)	-0.464
CCN(CC)Cc1cc(CCNC(=O)c2ccc(Cl)cc2)ccc1O	-30
Cc1cc(C)n(C(=O)COc2ccccc2C)n1	-3.33
O=C1c2ccccc2C(=O)N1CN(C(=O)c1ccccc1)c1ccc(O)cc1	7.61
C#CCOC(=O)c1ccccc1C(=O)N(CC)CC	17.4
CC1CC(C)(C)N(C(=O)CN2CCN(C)CC2)c2ccccc21.O=C(O)C(=O)O (stereo not shown)	10.6
C=CCOc1ccc(/C=C/C(=O)OCC(=O)N(C)C2CCS(=O)(=O)C2)cc1 (stereo not shown)	-8.77
CCOC(=O)Cn1cc(Cl)c(=O)c(Cl)c1	0.91
Cc1cc(C)n2cc(COc3ccccc3)nc2n1	-8.64
O=C(Nc1ccc(Cc2ccncc2)cc1)c1cc([N+](=O)[O-])ccc1N1CCOCC1	-39
O=C(Oc1cccc(Cl)c1)N1CCOCC1	0.554
COc1ccc(Cl)cc1NC(=O)CSc1nnc(Cc2cccn2C)n1-c1ccc(F)cc1	-34.6
O=C(NC1CCCC1)c1ccc2c(c1)N(Cc1ccc(F)cc1)CCS2	-30.1
CN(C)c1cccc(-c2nnc(SCCCC#N)o2)c1	-5.09
COc1ccc([N+](=O)[O-])cc1NC(=O)CSc1nc(C)c(C)c(C)n1	-5.9
COc1ccccc1NC(=O)CN1CCN(CC(=O)Nc2ccc(F)cc2)CC1	-79.2
O=c1cc(-c2ccccc2Cl)oc2c(NS(=O)(=O)c3cc(Cl)cc(Cl)c3O)ccc(O)c12	27.3
COC(=O)C1=C(c2ccc(Cl)c(C(F)(F)F)c2)C[C@@H]2CC[C@H]1N2C(=O)NCC1CC1	-16.3
Cc1ccc2oc(=O)c3cnn(CC(=O)N4CCCCCC4)c3c2c1	-26
O=C(CCl)Nc1nc(-c2ccco2)c(-c2ccco2)s1	-10.1

SMILES	hERG current change (%, negative = inhibition) at 10uM [%]
Cc1cc(C(=O)OCC(=O)NCc2ccc3c(c2)OCO3)c2ccccc2n1	-27.5
COC(=O)c1ccc(NC(=O)c2cc[n+]([O-])cc2)cc1	10.3
CCOC(=O)c1ccc(N2C(=O)C3ON(c4ccccc4)C(c4ccco4)C3C2=O)cc1 (stereo not shown)	15.5
Oc1ccccc1C1NN=C(c2ccccc2)S1 (stereo not shown)	-15
O=C(CSc1ncnc2ccccc12)Nc1cc(S(=O)(=O)N2CCCCC2)ccc1Cl	14.4
Cc1ccccc1OCC(=O)NCC(=O)N/N=C/c1ccc(Br)o1	18.8
COc1ccc(-c2cc3c(=O)n(CC(=O)N4CCCC4)ncn3n2)cc1	6.14
Cc1cccc(N2CCN(C(=O)C3CCN(S(=O)(=O)c4c(C)noc4C)CC3)CC2C)c1 (stereo not shown)	-1.76
COc1ccc(-c2nn(CCC#N)cc2C(=O)Nc2ccc(C(C)=O)cc2)cc1[N+](=O)[O-]	12.7
COc1ccc(Cl)cc1NC(=O)c1ocnc1C	10.1
O=C(NCC(=O)N(c1cccc(F)c1)C(C(=O)NC1CCCC1)c1ccncc1)c1cccs1 (stereo not shown)	5.32
COc1ccccc1CNC(=O)CCNC(=O)C1CCN(S(=O)(=O)c2ccccc2)CC1	-7.65
CC(=O)NCCC(=O)Nc1nc(C)c(Cc2ccc3c(c2)OCO3)s1	-11.9
COc1ccc(N(C(=O)c2cccnc2)S(=O)(=O)c2ccc3c(c2)n(C)c(=O)n3C)cc1	-8.9
CC1(C)CC(=O)CC(=Nc2ccc(C(=O)O)cc2)C1	5.93
N#Cc1ncc(C(F)(F)F)cc1Sc1ccccc1N	11.2
CN=C(Nc1ccc(C)c(C)c1)SC1CC(=O)N(c2ccc(OC)cc2)C1=O (stereo not shown)	9.97
COc1ccc(Cl)cc1NC(=O)C(C)NC(c1ccccc1)c1ccccc1 (stereo not shown)	2.46
O=Cc1ccccc1Oc1nc(N2CCOCC2)nc(N2CCOCC2)n1	6.2
Cc1oc2ccc(O)cc2c1C(=O)c1ccccc1	5.53
CC(C)(C)c1ccc(/C=C/C(=O)Nc2cccnc2)cc1	7.28
Cc1ccc(C)c(NC(=O)CCc2ccc(S(=O)(=O)NC3CCCCC3)cc2)c1	19
O=C(N/N=C/c1cc2c(cc1Cl)OCO2)c1ccc2c(c1)OCCO2	8.8
Cc1ccc(N2CC(C(=O)OCc3nc(N)nc(Nc4ccccc4C)n3)CC2=O)cc1 (stereo not shown)	-32.8
Cc1ccccc1NC(=O)NCCCN1CCCC1	26.6
Cc1ccn2cc(-c3cccc(NC(=O)C(C)C)c3)nc2c1	3.3
COc1ccc(C2=NOC(C(=O)NCc3ccc(F)cc3)C2)cc1OC (stereo not shown)	-3.78
